{"source": "the supplement of paper PMC11417369", "note": "± gives the standard deviation of the averaged measurements. The list shows a part of the results.", "data": [{"tested_on": "PfAP2-LT AP2 domain (GST-tagged)", "test": "gcPBM binding intensity (ln(normalized median fluorescence intensity)); higher = stronger DNA binding", "procedure,_shortened": "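Binding intensity values are the highest Masliner-normalised natural-log median intensity among replicate spots of either probe orientation. The binding step lasted 1 h in 1× PBS with 1% milk, 0.2 mg/ml BSA, 0.5% salmon testes DNA and 0.03% Triton X-100, using GST-tagged P. falciparum DNA-binding domains expressed in E. coli on an Agilent 4 × 180k array of primer-extended double-stranded 36-bp intergenic genomic probes plus negative controls. Alexa488 anti-GST antibody and a 488 nm scan detected bound protein.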", "values": [{"sequence": "TTTTTTTTATGTATCACACATAATTTTTTATTATGA [CACACA_site5534]", "gcPBM binding intensity (ln)": "8.64 ± 0.44"}, {"sequence": "AGAAAGAAAATATATACACACAAAAAAAAATATATA [CACACA_site1412]", "gcPBM binding intensity (ln)": "9.02 ± 0.38"}, {"sequence": "CATCCACAAATATGTACACACATATATAAATATGTA [CACACA_site7407]", "gcPBM binding intensity (ln)": "9.11 ± 0.37"}, {"sequence": "ATAATAACAAGGCGCTGTACTGTACCGTTTTTCATA [XGTACX_site6135]", "gcPBM binding intensity (ln)": "9.02 ± 0.38"}, {"sequence": "GACAACTCTTTTCATACACACAAAAAAAAAAAAATA [CACACA_site2361]", "gcPBM binding intensity (ln)": "8.71 ± 0.42"}, {"sequence": "CAATGTTAACATATTACACACATATGTATATATAAT [CACACA_site8878]", "gcPBM binding intensity (ln)": "9.14 ± 0.35"}, {"sequence": "GATATATCCTATGTTATTTTTATGGTGTAATTTAGT [XGTACX_negctrl_site112]", "gcPBM binding intensity (ln)": "8.87 ± 0.37"}, {"sequence": "TCACATATATATTAATGTACATATATTTTTTATGTA [XGTACX_site5125]", "gcPBM binding intensity (ln)": "8.75 ± 0.44"}, {"sequence": "ATAAACAGAAAAAAAAAAAAAAAAAAAAAAAAAAAA [CACACA_negctrl_site143]", "gcPBM binding intensity (ln)": "8.05 ± 0.32"}, {"sequence": "TTTTTTTTCTCACAAAAAATAATTAACAAAAAGGAA [XGTACX_negctrl_site154]", "gcPBM binding intensity (ln)": "8.02 ± 0.49"}, {"sequence": "GATTTATACAAATATGTACACACTAATTATATATTA [CACACA_site8045]", "gcPBM binding intensity (ln)": "8.97 ± 0.33"}, {"sequence": "TAAAAAAAAAAAAAAAGTACAAAAAAAATATTTTTT [XGTACX_site7941]", "gcPBM binding intensity (ln)": "8.33 ± 0.58"}, {"sequence": "ATATGCTATTTACTAGTGCAAAATATTTAAAATATG [GTGCAC_site9517]", "gcPBM binding intensity (ln)": "8.61 ± 0.36"}, {"sequence": "TTAATATAAGCAAATACACACACACCGATATATATA [CACACA_site9269]", "gcPBM binding intensity (ln)": "9.8 ± 0.26"}, {"sequence": "GTTGCACAATGTTACACACACAATATAGATCGTTAA [CACACA_site6717]", "gcPBM binding intensity (ln)": "9.22 ± 0.42"}, {"sequence": "ATAAAAAAAAAAAATACACACATATATTTATTTATA [CACACA_site6903]", "gcPBM binding intensity (ln)": "8.73 ± 0.49"}, {"sequence": "TTTATATGGATTTTTTTTTAATATTTCTTTTAATTT [TGCATGCA_negctrl_site361]", "gcPBM binding intensity (ln)": "8.29 ± 0.47"}, {"sequence": "ATATATATATATATATGTACTTATTTATATATTTAT [XGTACX_site7811]", "gcPBM binding intensity (ln)": "9.18 ± 0.57"}, {"sequence": "TGGTTATTTATCTTTATTATAAATATTTACAAATAA [CACACA_negctrl_site1773]", "gcPBM binding intensity (ln)": "8.3 ± 0.4"}, {"sequence": "ATAAGAAGAAGAAAAACACACATATGTAGATATATA [CACACA_site7469]", "gcPBM binding intensity (ln)": "9.01 ± 0.42"}, {"sequence": "GTATATATTAAAAAAAAAAAAAAAAAATTAAAATTA [CACACA_negctrl_site572]", "gcPBM binding intensity (ln)": "8.13 ± 0.49"}, {"sequence": "GGAATATTAATAAGAGTGCATTTTGTATTCAATATG", "gcPBM binding intensity (ln)": "8.66 ± 0.41"}, {"sequence": "TATAAGAAAAATAACACACACATAAACATATATACA [CACACA_site2785]", "gcPBM binding intensity (ln)": "9.57 ± 0.28"}, {"sequence": "TAGACTGGACATTAATGTACATAAATATATATGTAT [XGTACX_site7726]", "gcPBM binding intensity (ln)": "9.01 ± 0.52"}, {"sequence": "AAAAAAAAAATTCATTGTACATATATATATATATAT [XGTACX_site8346]", "gcPBM binding intensity (ln)": "9.22 ± 0.55"}, {"sequence": "TTATTGTACTTGCTCGCATGCAATAAAAATATATTA [TGCATGCA_site580]", "gcPBM binding intensity (ln)": "8.59 ± 0.26"}, {"sequence": "ATAAAAATAAAAAACTGTACATACAAGATGTTACAG [XGTACX_site6690]", "gcPBM binding intensity (ln)": "8.6 ± 0.49"}, {"sequence": "ATGCTTCCTTAGGAATGTACACACATATATAATATG [XGTACX_site873]", "gcPBM binding intensity (ln)": "9.09 ± 0.33"}, {"sequence": "AAATAATATTTTACATGTACATAATAATTATTGGAT [XGTACX_site2783]", "gcPBM binding intensity (ln)": "8.74 ± 0.39"}, {"sequence": "TAAATATTTAAATATTGTACTAGGTATAATTGAATA [XGTACX_site3604]", "gcPBM binding intensity (ln)": "8.43 ± 0.45"}, {"sequence": "ATTATTAATAATTGTGTGCACAAATATTTATATGCT", "gcPBM binding intensity (ln)": "9.18 ± 0.42"}, {"sequence": "ATATCAATATAAAGTACACACTATAGTATGTATTAT [CACACA_site5286]", "gcPBM binding intensity (ln)": "9.15 ± 0.49"}, {"sequence": "TTTATACAATTAGACACACACAAAAAGTATATATAT [CACACA_site1082]", "gcPBM binding intensity (ln)": "9.22 ± 0.36"}, {"sequence": "CATTCAAAGAAAAACTGTACGTGTAGCAAACGTCAT [XGTACX_site2576]", "gcPBM binding intensity (ln)": "8.71 ± 0.45"}, {"sequence": "ATGGGTATATTTCCACGTACAAAAAATCCGAATTGC [XGTACX_site1490]", "gcPBM binding intensity (ln)": "8.8 ± 0.41"}, {"sequence": "ATATAATTACATTGATGTACACGAAATGATTAACAT [XGTACX_site5183]", "gcPBM binding intensity (ln)": "8.86 ± 0.38"}, {"sequence": "CAAATACCCGGACACACACACACAAAAAAAAAAAAA [CACACA_site4441]", "gcPBM binding intensity (ln)": "10 ± 0.67"}, {"sequence": "TTCTTTTTAAATTACACACACATATATATCTGTATA [CACACA_site5863]", "gcPBM binding intensity (ln)": "9.45 ± 0.41"}, {"sequence": "TCATTATTAATATGTAGTACATTATATGATATGTAT [XGTACX_site8978]", "gcPBM binding intensity (ln)": "8.71 ± 0.38"}, {"sequence": "ATGAACATACAATATACACACATATAGATTTATATT [CACACA_site6524]", "gcPBM binding intensity (ln)": "9.18 ± 0.4"}, {"sequence": "TAAAGGATTTTCGAAGCATGCCACCTGTGACATACT [TGCATGCA_site130]", "gcPBM binding intensity (ln)": "8.74 ± 0.3"}, {"sequence": "TATTCAAAGAAAAACTGTACGTGTAGCCTACATCCT [XGTACX_site7707]", "gcPBM binding intensity (ln)": "8.69 ± 0.46"}, {"sequence": "TTTTTTGTTATTTTCCGTTTTTTTCCATTATAATTT [GTGCAC_negctrl_site461]", "gcPBM binding intensity (ln)": "8.72 ± 0.51"}, {"sequence": "ACGTTAAAAACAAGTTGTACACAATAAATTATTCTT [XGTACX_site6321]", "gcPBM binding intensity (ln)": "8.73 ± 0.52"}]}]}
